Reference: PubChem BioAssay AID1346428 (National Center for Advancing Translational Sciences (NCATS), 2018)
The campaign covered roughly 48,000 compounds. About 1,200 (2.5%) were called active. Roughly 2% stayed inconclusive and do not appear here.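 How the source made its calls: active means activation of at least 60% and not above a set upper limit (about 1 call in 100 departs from these limits); inconclusive means activation of 40% to 60%, or above that upper limit; inactive means activation under 40%.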 This is one part of the list.

Target: Probable G-protein coupled receptor 32 (Homo sapiens) (UniProt O75388)
UniProt O75388, sequence (O75388 whole entry, looked up): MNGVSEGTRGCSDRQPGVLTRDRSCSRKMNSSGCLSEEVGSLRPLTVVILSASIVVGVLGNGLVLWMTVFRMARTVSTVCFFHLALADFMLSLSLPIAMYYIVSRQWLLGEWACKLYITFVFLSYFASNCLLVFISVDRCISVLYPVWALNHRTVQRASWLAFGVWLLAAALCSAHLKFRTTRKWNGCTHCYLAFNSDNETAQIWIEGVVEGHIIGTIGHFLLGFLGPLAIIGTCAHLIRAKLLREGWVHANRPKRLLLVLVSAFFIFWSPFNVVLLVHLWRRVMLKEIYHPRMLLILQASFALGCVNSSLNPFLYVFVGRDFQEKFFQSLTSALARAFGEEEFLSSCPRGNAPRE
Assay: qHTS for Agonists of Human Resolvin D1 Receptor DRV1; further: 0% is about no effect
Conditions: CHO-K1 GPR32 beta-arrestin PathHunter luminescence, 90 min; at 76.9 µM; stronger effect = higher value; zero percent set by DMSO-only wells
Outline: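 Readings come from a cell-based beta-arrestin complementation format: CHO-K1 GPR32 stable cells (2,500/well) treated 90 min with compounds, then beta-Gal substrate added for 1 h before chemiluminescence imaging.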

activation, inactive:
COc1ccc(NC(=O)C(Cc2c[nH]c3ccccc23)NC(=O)OC(C)(C)C)cc1 (centres undefined) -5.78%
COC(=O)Cn1c(=NC(=O)c2ccc3c(c2)OCCO3)sc2ccccc21 -14.1%
COc1ccc(N2CC(NC(=O)c3cccs3)CC2=O)cc1 (centres undefined) -4.62%
O=C(CSc1nc(=O)[nH]c2c1CCCC2)Nc1ccc(Cl)c(Cl)c1 -7.36%
CCN(CC)S(=O)(=O)c1ccc(NC(=O)c2cc3ccc4cccnc4c3[nH]2)cc1 -4.52%
Cc1ccc(-n2nc(C(=O)Nc3ccc(F)cc3Cl)c(=O)n(C)c2=O)cc1 -3.02%
CN(Cc1ccccc1)c1nnc(NC(=O)Nc2cccc(Br)c2)s1 -5.69%
Cc1cc(N2CCN(C)CC2)nc2ccc(NC(=O)c3ccc(C(C)(C)C)cc3)cc12 15.8%
Cc1ccc(C(=O)n2nc(C)c(S(=O)(=O)N3CCCCCC3)c2C)cc1C -1.32%
COc1ccc(Cn2c(=O)n(-c3ccc(F)c(Cl)c3)c(=O)c3c2c2cc(OC)ccc2n3C)cc1 -7.93%
COc1ccc(CNC(=O)c2nc(SCc3ccc(C)cc3)ncc2Cl)cc1 -26.2%
CCc1nnc(NC(=O)CSc2nccn2Cc2ccc(C)cc2)s1 -11.8%
COc1ccccc1NC(=O)CSc1nc(O)c(C/C=C/c2ccccc2)c(=O)[nH]1 -9.17%
CCOc1cccc2sc(N3CCN(C(=O)c4ccc5c(c4)CCCC5)CC3)nc12 -30.2%
CCOC(=O)c1c(S(=O)(=O)N2CCC(C(=O)NCc3cccc(C)c3)CC2)c(C)n(C)c1C 7.36%
CC1CCCCN1c1c(S(=O)(=O)c2ccc(Cl)cc2)cnc2ccccc12 (centres undefined) -36.2%
Cc1ccc(CCNC(=O)c2sc3ncccc3c2-n2c(C)ccc2C)cc1 0.895%
COc1cccc(C2=CC(c3ccccc3F)n3ncc(C(=O)Nc4ccc(C)cc4)c3N2)c1 (centres undefined) -1.61%
CCC(=O)Nc1ccc(CC)cc1-c1nc2ccccc2n(CC(=O)Nc2cccc(OC)c2)c1=O -14.5%
Cc1cc(C)cc(-n2ccnc(NCCc3ccccc3)c2=O)c1 -13.2%
COc1ccc(-c2nc(CS(=O)CC(=O)NCCc3ccccc3)c(C)o2)cc1OC (centres undefined) -11%
CCOC(=O)c1cc2c(=O)n3ccccc3nc2n(CC(C)C)c1=NC(=O)COc1ccc(Cl)cc1 -13.7%
COc1ccc(C(=O)Nc2ccc3nc4c(c(Nc5ccc(OC)c(OC)c5)c3c2)CCCC4)c(OC)c1 35%
Cc1ccc(C)c(N2CCN(C(=O)c3cnn(C(C)(C)C)c3C3CCN(C(=O)OC(C)(C)C)CC3)CC2)c1 -9.05%
Cc1ccc2oc(C(=O)Nc3ccc(S(=O)(=O)N4CCCC(C)C4)cc3)cc(=O)c2c1 (centres undefined) 10.6%
CCn1cc2nc(SCc3cccc(C(F)(F)F)c3)n(Cc3ccc(Cl)cc3)c(=O)c2n1 -11.2%
COc1ccc(OC)c(NC(=O)CCCc2nnc3n(C(C)C)c(=O)c4sccc4n23)c1 -11.7%
COc1ccc(C)cc1NC(=O)N1CCC(CN2CCOCC2)CC1 -13.4%
Cc1ccc(N(CC(=O)N2CCN(c3cccc(Cl)c3)CC2)S(=O)(=O)c2c(C)noc2C)cc1 -12.7%
CCc1ccc(-n2c(=O)c3ccccc3n(CC(=O)NCCc3ccc(OC)c(OC)c3)c2=O)cc1 -7.86%
COc1ccc(Cl)cc1NC(=O)NCCn1c(=O)oc2ccc(C)cc21 -54.6%
Cc1ccccc1NC(=O)c1c(NC(=O)c2ccccc2)sc2c1CCC2 -0.0566%
Cn1cc(S(C)=O)c(=O)c2ccc(F)cc21 (centres undefined) -12.3%
Cc1ccc2cc3cc(C(=O)N4CCN(c5ccc(Cl)cc5)CC4)oc3nc2c1 0.622%
CCOc1ccc(NC(=O)CC2C(=O)N(c3ccccc3)C(=O)N2CCc2cccs2)cc1 (centres undefined) -10.5%
COc1ccc(-c2cn3nc(N4CCC(C(=O)Nc5ccccc5OC)CC4)sc3n2)cc1 -0.151%
CCN(CC)C(=O)c1sc2c(c1C)c(=O)n(-c1ccccc1)c(=O)n2Cc1c(C)cc(C)cc1C -36.1%
O=S(c1cc(Cl)cc(Cl)c1O)c1cc(Cl)cc(Cl)c1O 4.93%
COc1ccc(-n2nc3ccc(NC(=O)c4ccc(C#N)cc4F)cc3n2)cc1Cl -11.3%
O=C(COc1ccccc1Cl)Nc1nnc(S(=O)(=O)N2CCCC2)s1 9.35%
Cc1ccc(NC(=O)CCc2c(C)nn(-c3ccc(N4CCOCC4)nn3)c2C)c(C)c1 7.73%
CCOc1ccccc1NC(=O)C(CC(C)C)NC(=O)C1CCC(C)CC1 (centres undefined) -12.7%
COc1cccc2c1cc1c(=O)n(CC(=O)N3CCN(c4cccc(C(F)(F)F)c4)CC3)nc(C)n12 -2.29%
CCCCN(CC)C(=O)CSc1nc2n[nH]c(C)c2c(=N)n1-c1cccc(C)c1 -13.7%
CC(Oc1c(Cl)cccc1Cl)C1=NCCN1 (centres undefined) -25.7%
COc1cccc2sc(NC(=O)CS(=O)(=O)c3ccc(C)cc3)nc12 -3.15%
CCOc1ccc(NC2SC(=O)N(Cc3ccccc3)C2=O)cc1 (centres undefined) -43.7%
COc1ccc(Cn2c(CO)cnc2SCC(=O)Nc2ccc3c(c2)OCCO3)cc1 20.7%
COc1cccc(COC(=O)c2ccc(-c3nnn(Cc4cccc(OC)c4)n3)cc2)c1 -0.15%
O=C(Nc1cccs1)Nc1ccc(F)cc1F -10.4%
O=C(O)Cn1c(-c2cccs2)cc2cc(Cl)ccc21 -25.2%
O=C(Nc1cccc(C(F)(F)F)c1)c1cc(-c2ccc(Cl)s2)nc2ccccc12 -8.12%
Cc1ccc(S(=O)(=O)n2nc(-c3ccc(Cl)cc3)nc2NCc2ccccc2)cc1 2.35%
Cn1c(-n2cccc2)c(-c2c(-c3ccc(F)cc3)[nH]c3c2c(=O)n(C)c(=O)n3C)c(=O)n(C)c1=O -13.1%
COCCCNC(=O)Cn1nc(N2CCN(c3ccccc3)CC2)ccc1=O -3.08%
CCCSc1oc(-c2ccco2)nc1S(=O)(=O)c1ccc(Br)cc1 -22.3%
COCCn1ccc2c(OCC(=O)Nc3c(C)cc(C)cc3C)cccc2c1=O -10.5%
CC(=O)N1CCc2c(sc3c2c(=O)n(-c2ccc(F)cc2)c(=O)n3Cc2ccc(C#N)cc2)C1 -2.19%
CN(C)CC/C=C1\c2ccccc2COc2ccccc21 -2.14%
CC1CCc2c(sc3nnn(Cc4cccc(C(=O)OC(C)C)c4)c(=O)c23)C1 (centres undefined) -10.2%
COc1ccc(CC(=O)Nc2cc(-c3cn4cccnc4n3)ccc2C)cc1OC -11.8%
CCn1c(C(=O)NCc2ccccc2OC)cc2sccc21 -15.4%
CCOc1ccccc1CNC(=O)C1CCN(S(=O)(=O)c2c(C)noc2/C=C/c2ccccc2F)CC1 -5.45%
COc1ccc(-n2ccnc(NCc3cccs3)c2=O)cc1OC -0.385%
CCCCc1ccc(NC(=O)c2cc(-c3ccc(C)c(F)c3)on2)cc1 17.2%
Cc1ccc(OCc2nc(-c3ccc(C(=O)NCCc4ccc(Cl)cc4)cc3)oc2C)cc1 2.36%
Cc1ccc(NC(=O)CN2C(=O)CCc3ccccc32)cc1C -2.52%
CC(C)Nc1ccc(-c2nc(-c3ccncc3)no2)cc1[N+](=O)[O-] -6.16%
Cc1ccccc1CN1C(=O)c2ccccc2Sc2ccc(C(=O)NC3CCCCC3)cc21 -5.21%
COc1ccc(NC(=O)c2nn(C)c3c2CS(=O)(=O)c2ccccc2-3)cc1Cl 7.93%
COc1ccc(C2=C(Nc3ccc(Br)c(C)c3)c3ccccc3C2=O)cc1 -33.1%
CCc1nn(CC(=O)N2CCN(c3cccc(OC)c3)CC2)c(=O)c2cc3occc3n12 7.48%
CCOC(=O)c1c(C)[nH]c(C)c1S(=O)(=O)N1CCCC(C(=O)N2CCN(c3ccccc3F)CC2)C1 (centres undefined) -7.13%
COc1ccc(N(CC(=O)NC(C)c2ccccc2)S(=O)(=O)c2c(C)nn(C)c2C)cc1 (centres undefined) -4.76%
COc1ccc(N2CCN(Cc3nc4c(c(=O)[nH]c(=O)n4C)n3Cc3ccc(C)cc3)CC2)cc1 -21.9%
CC1CN(C(=O)CCC(=O)NCc2cccc(Cl)c2)c2ccccc2S1 (centres undefined) -24%
COc1ccc(S(=O)(=O)c2cnc3cc(OC)c(OC)cc3c2N2CCCC(C)C2)cc1 (centres undefined) -32%
O=C(O)c1ccc(Cn2cnc3cccnc32)cc1 0.748%
CC1CCN(CC2CCN(C(=O)NCc3ccc(F)cc3)CC2)CC1 2.87%
Cc1ccc(/C=C/c2onc(C)c2S(=O)(=O)N2CCC(C(=O)N3CCN(c4cccc(C)c4)C(C)C3)CC2)cc1 (centres undefined) 2.18%
CCOc1ccc(C2C(C(=O)Nc3ccccc3)=C(C)Nc3nc(SCc4cccc(OC)c4)nn32)cc1 (centres undefined) 40.6%
O=C(NCc1ccccc1)c1nc(S(=O)(=O)Cc2ccc(F)cc2)ncc1Cl -25.3%
O=S(=O)(NCCc1csc2nc(-c3ccccc3)nn12)c1cccs1 23.7%
CCOc1ccc(-c2cn3c(n2)sc2cc(C(=O)NCCc4ccc(OC)cc4OC)ccc23)cc1 -10.4%
